# Measurements from the supplement of paper PMC3334620.
# Whole data set: some 33,000 sequences, median “E-score (-0.5 to 0.5)” near -0.01, cut for the highest 2% near 0.26. Some of the results follow.
# Target: Ste12 (UniProt P13574)
# Assay: PBM E-score (8-mer binding enrichment) (E-score (-0.5 to 0.5)); higher = stronger / more preferred TF binding; most listed sequences are background and not binding sites
# Conditions: protein concentration: 200 nM; construct: GST-DNA-binding domain
# Summary of the method: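 E-scores (a modified Wilcoxon-Mann-Whitney statistic) were assigned by the Universal PBM Analysis Suite to every ungapped eight-base word pooled with its reverse complement. The input came from universal all-10-mer Agilent arrays made double-stranded by primer extension and probed with GST-tagged yeast transcription factors at about 100-200 nM. Fluorescent anti-GST detected bound protein, and masliner normalised the scans.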
row,Sequence,PBM E-score
1,AGTCTGTC,-0.138
2,ACTAGTGG,-0.00611
3,GCGGTCAC,-0.0712
4,AGGTCACA,0.0484
5,AATGACAA,0.034
6,CAGGGCGG,-0.0841
7,AACAACGA,-0.0132
8,AGGACCTA,-0.0686
9,TAGGCGAA,0.0575
10,AGCGATAG,-0.272
11,CCATGTTA,0.0685
12,CCTCGTAA,0.0987
13,CGCAGGCG,-0.138
14,ACGAGACC,0.0387
15,CCAGTTTA,0.118
16,AACTTCTA,-0.154
17,TAATACCA,0.122
18,AGCGTCGG,0.00249
19,ACAGAGAG,-0.158
20,AACCAATT,0.162
21,AAGCTAGT,6e-05
22,GCTGTCCA,0.0328
23,CTTTGAAA,0.318
24,TCAGTCCA,-0.266
25,CGCTGCGC,-0.141

row,Sequence,PBM E-score
1,AAGTCGAA,-0.145
2,ATCAATAA,0.114
3,CGTCAAAC,0.135
4,AACCGCTA,-0.0725
5,AAACCTTT,-0.0522
6,AAAGATCT,-0.0916
7,TACTTATA,0.137
8,CATGTCGA,-0.167
9,TAATTTGA,0.07
10,ATACGTTG,-0.0291
11,CGCATCAC,0.0993
12,ATCTCGCC,-0.335
13,TCCGGCCA,-0.177
14,CGGCGGCA,-0.0641
15,CGGCAGTC,0.0152
16,TATAGCCA,-0.0285
17,CCAGTTCC,0.0243
18,GCCACGCA,-0.0632
19,AAGTGTGA,-0.0221
20,ATCTGGAA,0.208
21,CCGTACAC,-0.0283
22,CAAGGGGG,-0.0618
23,ATAGTAAT,0.107
24,AGACCAGG,-0.147
25,AGTTACAA,0.157

row,Sequence,PBM E-score
1,TCCTTACA,-0.0135
2,CGTCCTAC,-0.0953
3,CCCATACC,0.147
4,GAACATCC,0.0627
5,AGCGCAAA,0.0763
6,AACTAGAT,0.127
7,GACGGCGC,0.0327
8,GGCATTCA,0.0626
9,GCAGTGAC,-0.0517
10,GTGCTAGA,-0.115
11,GGAAAAAC,0.322
12,TCTATGCA,-0.0611
13,ACACTAAG,-0.148
14,CACGCGTA,-0.187
15,CTGTACCA,-0.0689
16,AATGCTGC,-0.15
17,ATGACGTG,-0.156
18,ACGAAGCC,-0.0351
19,GACCACGA,-0.163
20,AAACCGGC,0.249
21,CCTATCAC,-0.128
22,GCTTGCAC,-0.00507
23,CGAGACGA,0.0089
24,GGCGCCCC,0.00973
25,ATTAGGCA,-0.00086

row,Sequence,PBM E-score
1,AGGAATAT,0.195
2,CATCGCGG,-0.0392
3,ATGCCATG,-0.0497
4,TGCTGAAA,0.24
5,AGCGCATC,-0.0113
6,AAATCACT,0.133
7,CTGTCTCC,-0.127
8,ACGCTCCT,-0.0731
9,TACAGGTA,-0.0644
10,ATCTGGAG,-0.0625
11,TAGGTTGA,0.114
12,CCGTGTGC,-0.104
13,GCAAGACC,-0.0946
14,CCTTCGGC,-0.129
15,CACATTGG,-0.118
16,ATCAATCA,0.203
17,CGGCTGAA,-0.0336
18,AGCGGCCG,-0.0286
19,CGGCTTCC,-0.116
20,AACCCTCA,0.0136
21,GCGCTAGC,-0.156
22,CGCAGCCC,-0.0745
23,GGACAGCC,0.0251
24,GGCCGACA,-0.00431
25,GACCTATA,-0.0135

row,Sequence,PBM E-score
1,ACTGAACT,0.0759
2,AGGCTGCA,-0.118
3,AGTGCACT,0.0766
4,CAGGTTGC,0.00307
5,CCGGCTAG,-0.236
6,GGCCACCC,-0.0512
7,GGGAGAAA,0.0409
8,GTGTATTA,0.25
9,ACGTATTG,-0.0942
10,GCACGGAC,-0.138
11,TGCTTACA,-0.0444
12,ACGGTCTA,-0.0856
13,GCTCCGGA,0.158
14,CGCGTCTA,0.0356
15,AGCAACAG,-0.05
16,CACTGTAA,0.113
17,CTGACACA,0.168
18,ATGTTCAG,-0.132
19,ATAAGAAG,0.158
20,ACAAGAGT,-0.0133
21,AGGTTCTA,0.0347
22,ATCCACGA,-0.0201
23,CAAGCAGC,-0.072
24,GAGGGGGC,-0.26
25,ATACGCCC,-0.0463

row,Sequence,PBM E-score
1,CATTACTA,0.00888
2,CGATAGAA,0.0518
3,CTTGGCGC,0.0285
4,CATATTGG,0.0619
5,AATAAAGC,0.132
6,GAAATCAA,0.161
7,CAGTTCGC,0.0734
8,GATCAGCA,-0.0725
9,TAAATCAA,0.213
10,AGGATCGG,0.00723
11,AGACCCGC,0.0866
12,ATGAGACG,0.171
13,TGAGCCCA,-0.216
14,ACAGAGGA,-0.087
15,ACGGATCG,-0.0932
16,AGACCCCA,0.0579
17,ACCGGAGG,-0.0753
18,GAAAATAA,0.216
19,CATTGCTC,-0.175
20,ACCAGGTG,-0.119
21,GAGACCCA,-0.115
22,AACTAAGC,-0.0236
23,GTTCATTA,0.0875
24,GTTTAGAA,0.26
25,CAGTCTTA,-0.0324

row,Sequence,PBM E-score
1,GGCCCGCC,0.0329
2,ATCTGAGC,0.022
3,CTGAGATC,-0.145
4,AGAAGGAC,-0.222
5,GAAAACTC,-0.0875
6,ATTCGTTC,0.14
7,TCATGCGA,0.0407
8,CGAGGCAG,-0.0653
9,ATTTCAAC,0.161
10,GGAAACTA,0.0625
11,ATTTCGCG,0.126
12,AACTCTGC,-0.149
13,AAGTTGGG,-0.0163
14,CTCCGAGA,0.0872
15,TACCTCTA,-0.00154
16,CAGGGAGA,-0.142
17,ACGACGGA,-0.0551
18,CGATGTCC,0.0357
19,AAAATGCT,0.0799
20,ATCAGTGA,-0.014
21,GGAGTTAA,-0.0873
22,CGTGGTCC,-0.252
23,CCTATGAC,-0.0451
24,AGTTGAGC,-0.152
25,AGAAGGTA,0.071

row,Sequence,PBM E-score
1,AAGTCGAG,-0.21
2,CTGGCGAA,-0.0468
3,CCACAGGG,-0.311
4,CAATCTTC,0.144
5,GAGCTGGA,-0.263
6,GCCAACAC,-0.0779
7,GTGCAGTA,-0.105
8,CACGCCCC,-0.053
9,ATACGCAG,-0.211
10,ATCACTCC,-0.00583
11,ATCTCGTG,-0.191
12,ATTCCCCC,-0.221
13,TGGTTTAA,0.114
14,GTACCAGA,-0.0263
15,CAAATATC,0.202
16,GATAGCTA,-0.217
17,CGACTGAC,-0.136
18,CCCGTACA,-0.173
19,ACGCTTCT,-0.0568
20,AACAATGT,0.152
21,ATGGCTTG,-0.11
22,ATTTACTG,0.171
23,AACCTGTG,-0.0978
24,AATTGGGA,0.217
25,TAACGCTA,-0.109

row,Sequence,PBM E-score
1,AATGCCCC,-0.15
2,ACACTAGT,0.0355
3,CGATTCGA,0.222
4,CCGCGCAA,-0.128
5,ATATTTTC,0.24
6,AAGGCCTC,-0.281
7,ACGCTGTC,-0.245
8,CTGCACAC,-0.0795
9,ACTCAAGA,-0.0306
10,CTGGGCCC,-0.193
11,CTACGAGC,-0.154
12,CCTAGTCG,-0.106
13,GTTTGCAA,0.186
14,AGGTTGTC,-0.156
15,CGACGCTC,0.0628
16,ATCTCTGC,0.0868
17,AACGACCG,-0.16
18,AGATAGCG,-0.064
19,AGTAAATA,0.195
